In US20220281949A1 (UNIVERSITY HEALTH NETWORK, published 2022):

Biological target: T1, recombinant 10× His-tagged CD4 protein (extracellular domain of human CD4, GS linker, 10× histidine tag) (human, UniProt P01730 fragment)
T1 construct: Expressed in A375 cells, purified on TALON resin; The text says residues 26-440 of NP_000607.1, whereas the printed construct ends at ...KVLPTW; also called soluble CD4; recombinant CD4
Test: biolayer interferometry (Octet Red): biotinylated DR1 on streptavidin sensors, soluble CD4 as analyte, 400 s association, 300 s dissociation

B1: biotinylated recombinant wild-type DR1 protein (DRA1*01:01 and DRB1*01:01 extracellular domains with leucine zippers) (peptide-MHC)
MHC II alpha: not shown
MHC II beta: GDTRPRFLWQLKFECHFFNGTERVRLLERCIYNQEESVRFDSDVGEYRAVTELGRPDAEYWNSQKDLLEQRRAAVDTYCRHNYGVGESFTVQRRVEPKVTVYPSKTQPLQHHNLLVCSVSGFYPGSIEVRWFRNGQEEKAGVVSTGLIQNGDWTFQTLVMLETVPRSGEVYTCQVEHPSVTSPLTVEWRARSESAQSKGGGGSLEIEAAFLERENTALETRVAELRQRVQRLRNRVSQYRTRYGPLGGGKGSGLNDIFEAQKIEWHE
notes: also called biotinylated HLA-DR1; recombinant DR1
binding result: no binding (tested: 26 µM)
